Reference: DBAASP

Key:
Assay in all cases: ≥ marks a high value that may be exact or a test limit, other limits are often not marked
[1] = tested on: Streptococcus pyogenes M1T1 5448
Escherichia coli BL21 = tested on: Escherichia coli BL21
[2] = tested on: Pseudomonas aeruginosa PAO1

Row | MIC [1] [µM] | MIC (Escherichia coli BL21) [µM] | MIC [2] [µM] | Compound
1 | 1 (≈ 2.96 µg/mL) | 2 (≈ 5.91 µg/mL) | 64 (≈ 189 µg/mL) | CC[C@H](C)[C@H](NC(=O)[C@H](CCCCN)NC(=O)[C@H](C)NC(=O)[C@H](CCCN=C(N)N)NC(=O)[C@H](CCCCN)NC(=O)[C@H](CCCCN)NC(=O)CNC(=O)[C@H](CCC(=O)O)NC(=O)[C@H](CCC(N)=O)NC(=O)[C@@H](NC(=O)[C@H](CCCCN)NC(=O)[C@H](CCCCN)NC(=O)[C@H](CCCCN)NC(=O)[C@H](CC(C)C)NC(=O)[C@H](Cc1ccccc1)NC(=O)[C@H](CCC(N)=O)NC(=O)[C@H](CCCN=C(N)N)NC(=O)[C@@H](NC(=O)[C@@H](NC(=O)[C@H](CCC(=O)O)NC(=O)[C@H](CCCCN)NC(=O)CNC(=O)[C@H](C)N)[C@@H](C)O)[C@@H](C)CC)[C@@H](C)CC)C(=O)N[C@@H](C)C(=O)N[C@@H](Cc1c[nH]c2ccccc12)C(=O)O [AGKETIRQFLKKKIQEGKKRAKIAW]
2 | 0.125 (≈ 0.377 µg/mL) | 0.25 (≈ 0.754 µg/mL) | 32 (≈ 96.5 µg/mL) | CC[C@H](C)[C@H](NC(=O)[C@H](CCCCN)NC(=O)[C@H](CCCCN)NC(=O)CNC(=O)[C@H](CCC(=O)O)NC(=O)[C@H](CC(N)=O)NC(=O)[C@@H](NC(=O)[C@@H](NC(=O)[C@H](CCCCN)NC(=O)[C@H](CCCCN)NC(=O)[C@H](CC(C)C)NC(=O)[C@H](CCCN=C(N)N)NC(=O)[C@H](CC(N)=O)NC(=O)[C@H](Cc1ccccc1)NC(=O)[C@@H](NC(=O)[C@H](CCCCN)NC(=O)[C@H](CCC(=O)O)NC(=O)[C@@H](NC(=O)CNC(=O)[C@H](C)N)[C@@H](C)O)[C@@H](C)CC)[C@@H](C)O)[C@@H](C)CC)C(=O)N[C@@H](C)C(=O)N[C@@H](CCCCN)C(=O)N[C@@H](CCCN=C(N)N)C(=O)N[C@@H](Cc1c[nH]c2ccccc12)C(=O)N[C@@H](Cc1c[nH]c2ccccc12)C(=O)O [AGTEKIFNRLKKTINEGKKIAKRWW]
3 | 4 (≈ 12.1 µg/mL) | 4 (≈ 12.1 µg/mL) | 16 (≈ 48.3 µg/mL) | CC[C@H](C)[C@H](NC(=O)[C@H](Cc1ccccc1)NC(=O)[C@H](C)NC(=O)[C@H](CCCCN)NC(=O)[C@H](CCCCN)NC(=O)CNC(=O)[C@H](CCCN=C(N)N)NC(=O)[C@H](CCCCN)NC(=O)[C@H](CCCN=C(N)N)NC(=O)[C@H](CC(C)C)NC(=O)[C@H](CCC(=O)O)NC(=O)[C@H](CCC(=O)O)NC(=O)[C@H](CC(C)C)NC(=O)[C@H](CC(C)C)NC(=O)[C@H](Cc1ccc(O)cc1)NC(=O)[C@H](CCCCN)NC(=O)[C@@H](NC(=O)[C@H](CC(C)C)NC(=O)[C@H](C)NC(=O)[C@H](CCC(N)=O)NC(=O)[C@H](CCCN=C(N)N)NC(=O)[C@H](CCCCN)NC(=O)[C@H](C)N)[C@@H](C)O)C(=O)N[C@@H](C)C(=O)N[C@@H](Cc1c[nH]c2ccccc12)C(=O)O [AKRQALTKYLLEELRKRGKKAFIAW]
4 | 1 (≈ 3.06 µg/mL) | 2 (≈ 6.13 µg/mL) | > 128 | CC[C@H](C)[C@H](NC(=O)[C@H](CCCCN)NC(=O)CNC(=O)[C@H](Cc1ccccc1)NC(=O)[C@H](CCCCN)NC(=O)[C@H](CCCN=C(N)N)NC(=O)[C@H](CC(C)C)NC(=O)[C@H](Cc1ccc(O)cc1)NC(=O)[C@H](CCC(=O)O)NC(=O)[C@H](CC(C)C)NC(=O)[C@H](CC(C)C)NC(=O)[C@H](CCC(=O)O)NC(=O)[C@H](CCCCN)NC(=O)[C@@H](NC(=O)[C@H](CC(C)C)NC(=O)[C@H](CCCN=C(N)N)NC(=O)[C@H](CCC(N)=O)NC(=O)[C@H](C)NC(=O)CNC(=O)[C@@H](N)Cc1c[nH]c2ccccc12)[C@@H](C)O)C(=O)N[C@@H](C)C(=O)N[C@@H](CCCN=C(N)N)C(=O)N[C@@H](CCCCN)C(=O)N[C@@H](C)C(=O)N[C@@H](Cc1c[nH]c2ccccc12)C(=O)O [WGAQRLTKELLEYLRKFGKIARKAW]

In brackets after ≈: the same amount, converted by molar mass.
